The full ranking holds about 13,000 compounds; the median of “IFI” is about 4, and the highest 2% start at about 17. The list shows a part of the results.
Test: GSK_TCMDC: Inhibition Frequency Index (IFI). The number of non-kinase HTS assays where a compound showed > 50 % inhibition, expressed as a percentage of the number of such assays in which the compound was tested (-0 is zero)
Assay type: functional

Row | SMILES | IFI [%]
1 | CCCCCN1C(=O)C(c2ccccc2)(c2ccccc2)N=C1N | 4
2 | O=S(=O)(Nc1ccc(CCN2CCC(N3CCCCC3)CC2)cc1)c1ccc2ccccc2c1 | 12.7
3 | COc1ccccc1CCNc1nc(C)cc(N[C@@H](Cc2ccccc2)C(=O)Nc2ccccc2)n1 | 13.6
4 | CCCN(CCC)CCCN(CCCN(CCC)CCC)c1cc(C)nc(Nc2ccc(Cl)cc2)n1 | 6.52
5 | Cc1cccc(-c2ccc(CNC3CCN(CC4Cn5c(=O)ccc6ccc(F)c4c65)CC3)cn2)c1 (configuration not stated) | 4.17
6 | CN1CCN(c2ncnc3ccc(NC(=O)Nc4ccc(Cl)c(Cl)c4)cc23)CC1 | 4.55
7 | Cc1ccc(CN2CCC(Oc3cccc(NC(=O)c4ccc(C(F)(F)F)cc4)c3)CC2)cc1 | 11.7
8 | O=C(c1ccc(-c2ccc(Cl)cc2)o1)N1CCc2cc3nccc(N4CCN5CCC[C@H]5C4)c3cc21 | 8.89
9 | Cc1cc(NC(=O)Nc2cccc(Cl)c2Cl)c2ccccc2n1 | 2.16
10 | N=C(N)Nc1nc(-c2cccc(NC(=O)C(F)(F)F)c2)cs1 | 1.45
11 | O=c1cc(NCCCNCc2cc(Br)ccc2F)[nH]c2ccccc12 | 1.44
12 | CNC(=O)/C=C/c1cc(NC(=O)Nc2ccnc3c(Br)cccc23)ccc1OC | 4.38
13 | C[C@H](Cc1ccc(C[C@@H](C)NC[C@H](O)c2cccc(Cl)c2)cc1)NC[C@H](O)COc1ccccc1 | 7.91
14 | Cc1cccc2nc(-c3cccc(-c4cccc(NC(=O)CC5NC(=O)c6ccccc65)c4)c3)[nH]c12 (configuration not stated) | 3.64
15 | CC(C)(NCc1ncc[nH]1)c1nc(-c2ccc(Cl)c(O)c2)c(-c2ccncc2)[nH]1 | 1.48
16 | CN(C)C(=S)N/N=C1/C(=O)Nc2ccc(OC(F)(F)F)cc21 | 8.57
17 | CCCCCCCCCc1c(C)[nH]c2ccccc2c1=O | 1.45
18 | COc1ccc(-c2ccc(NC(=O)c3ccc(C#N)cc3)cc2)cc1CNC(C)C | 1.98
19 | COc1ccc(CNc2ncc(-c3ccsc3)c(-c3nccs3)n2)cc1OC | 3.37
20 | O=C(N1CCN(c2cccc(C(F)(F)F)c2)CC1)C(Cl)(Cl)Cl | 1.42
21 | CCCCCCCCOc1ccc(N2C(N)=NC(N)=NC2(C)C)cc1 | 8.39
22 | Cc1[nH]c(C)c(-c2ccc(-c3ccc(OC(F)(F)F)cc3)nc2)c(=O)c1Cl | 1.69
23 | Cc1cc(=O)c2cc(Oc3cccc(OC(F)(F)F)c3)ccc2[nH]1 | 2.63

Row | SMILES | IFI [%]
24 | Cc1ccc(Cn2c(N3CCC(C(=O)NCc4cccs4)CC3)nc3ccccc32)cc1 | 3.96
25 | CN(C)CC(O)C(c1ccccc1)c1cccc(Br)c1 (configuration not stated) | 0
26 | COc1cccc(OC(C)(C)c2nc(N[C@@H](C)c3ccccc3)c3cn[nH]c3n2)c1 | 10.5
27 | Nc1nc(N)c2c(Cl)c(N(Cc3ccccc3)Cc3ccccc3)ccc2n1 | 2.17
28 | NCCC(=O)Nc1ccc(-c2cnc3[nH]cc(-c4ccc(C(=O)O)cc4)c3c2)cn1 | 3.23
29 | CC(=O)Nc1ccc2[nH]cc(C3CCN(CC4CCC(NC(=O)/C=C/c5ccc(Cl)c(Cl)c5)CC4)CC3)c2n1 (configuration not stated) | 0.71
30 | COc1cc2nc(N3CCN(C(=O)c4ccco4)CC3)nc(NCc3ccccc3)c2cc1OC | 4
31 | O=C(NC1CCN(Cc2cccc(C(F)(F)F)c2)CC1)c1ccc(-c2cccc(Cl)c2)s1 | 10.9
32 | COc1ccc(CNCc2ccc(-c3ccc(-c4nc5cccc(C)c5[nH]4)cc3)cc2)cc1 | 13.1
33 | CN(C)Cc1ccc(CNC2CCN(Cc3ccccc3Cl)CC2)cc1 | 0.69
34 | CCCCOC(=O)C1=C(C)NC2=C(C(=O)CCC2)C1c1ccc(OC)c(Br)c1 (configuration not stated) | 0.72
35 | COc1ccc(CCNc2nc(SCc3ccccc3Cl)nc3ccccc23)cc1OC | 2.21
36 | Cc1nc(-c2cccc3c(NC(=O)Nc4ccc5nccc(N6CCN(C)CC6)c5c4)cccc23)no1 | 4.38
37 | CN1CCN(c2cc(NC(=O)Nc3ccc(-c4ccncc4)c(Cl)c3)ccc2Br)CC1 | 5.84
38 | COc1ccc(Nc2nccc(N3CCC(NC(=O)Nc4cccc(C(C)=O)c4)C3)n2)cc1 (configuration not stated) | 0
39 | CC1CCN(CC[C@H]2CCCN2S(=O)(=O)c2cccc(NC(=O)c3ccc(-c4ccccc4)cc3)c2)CC1 | 6.92
40 | COc1cccc(CNC[C@@H](O)[C@H](Cc2ccccc2)NC(=O)c2cc(NC(C)C)cc(N3CCCCS3(=O)=O)c2)c1 | 2.08
41 | COc1ccccc1CCNc1ncc(F)c(N[C@@H](Cc2ccccc2)C(=O)NCCc2ccccc2)n1 | 2.78
42 | CN1CCN(c2ccnc3ccc(NC(=O)Nc4cccc5ccccc45)cc23)CC1 | 1.48
43 | Cc1cccc(C(O)CNc2ccnc(Nc3cccc(-c4csc(C)n4)c3)n2)c1 (configuration not stated) | 13.6
44 | Cc1ccc(S(=O)(=O)NC2CCN(CCNC(=O)Nc3cc(C)nc4ccccc34)C2)cc1 (configuration not stated) | 0
45 | COc1ccc2nc3cc(Cl)ccc3c(NCCN(C)C)c2c1 | 5.88
46 | O=S(=O)(c1ccc(Cl)cc1Cl)N1CCCCC(c2ccc(C(F)(F)F)cc2)=N1 | 2.19

Row | SMILES | IFI [%]
47 | O=C(Nc1ccncc1)Nc1ccc2c(c1)CCN(C1CCC1)CC2 | 0.74
48 | COc1ccc(NC(=O)/C=C/c2ccccc2Cl)cc1OCCN1CCC(NCc2cccnc2)CC1 | 1.4
49 | Cc1cc(OCCCN2CCN(CCN3CCOCC3)CC2)ccc1NC(=O)COc1ccc(Cl)cc1C(=O)c1cc(Cl)cc(C#N)c1 | 12.7
50 | COc1cc(OC)c2c(C)cc(NCCCN3CCOCC3)nc2c1 | 0.75
51 | CCc1cc(-c2onc(C(F)(F)F)c2-c2ccccc2)c(O)cc1OC | 7.56
52 | COCCNCc1ccc(-c2ccc(CNC3CCN(Cc4ccccc4)CC3)cc2)cc1 | 2.86
53 | N#Cc1ccc2c(c1)CN(CCC1CCC(NC(=O)c3cc4ccccc4cc3N)CC1)CC2 (configuration not stated) | 5.11
54 | CN(C)CCOc1cc(NC(=O)/C=C/c2cccc3ccccc23)ccc1I | 5.11
55 | COc1ccc(-n2nc(C(=O)NCCC3=CCCCC3)c3ccccc3c2=O)cc1 | 1.03
56 | c1ccc(C2CCC(N3CCC(N4CCCC4)CC3)CC2)cc1 (configuration not stated) | 0.82
57 | CC(C)CCN1CCC(Oc2ccc(NC(=O)c3cccs3)cc2Cl)CC1 | 8.06
58 | Cc1cccc2nc(-c3cccc(-c4cccc(NC(=O)CCc5c[nH]cn5)c4)c3)[nH]c12 | 1.74
59 | CN(C(=O)/C=C/c1c(Cl)cccc1Cl)C1CCN(CCCCCNC(=O)/C=C/c2ccc(Cl)c(Cl)c2)CC1 | 12.9
60 | CC(=O)Nc1cccc(C(=O)Nc2nc3ccc(-c4cc(=O)[nH]c(Nc5ccccc5Cl)n4)cc3[nH]2)c1 | 3.82
61 | Cn1cccc1C(=O)Nc1cccc(-c2nn3ccccc3c2-c2ccnc(Nc3ccc4c(c3)OCCO4)n2)c1 | 3.13
62 | CNC(=O)CC(=O)NCCc1ccc(Cl)cc1 | 0
63 | CC(C)COc1ccc(Cl)cc1Nc1nc(-c2nc3ccccc3[nH]2)cs1 | 6.67
64 | CN(C)CCOc1cc(NC(=O)Nc2ccc(-c3ccccc3)cc2Cl)ccc1I | 11.1
65 | O=C(c1cccc(-c2noc(C(F)(F)F)n2)c1)N1CCN(C(=O)c2ccc3cc[nH]c3c2)CC1 | 1.92
66 | Cc1ccc2[nH]cc(/C=C/C(=O)NC3CCC(CCN4CCc5ccc(C#N)cc5CC4)CC3)c2c1 (configuration not stated) | 6.85
67 | Cc1ccccc1C1CCN(C2CCC(NC(=O)c3csc(-c4cccc(Cl)c4)n3)CC2)CC1 (configuration not stated) | 3.57
68 | Cc1nc(Nc2ccncc2)cc(-c2ccncc2)n1 | -0
69 | N#Cc1ccccc1S(=O)(=O)N1CCCC(CNC(=O)[C@H](CC2CCCCC2)NC(=O)c2cc3ccccc3s2)C1 (some centres not stated) | 1.9

Row | SMILES | IFI [%]
70 | Cc1[nH]c(C)c(-c2ccc(Oc3ccccc3)cc2)c(=O)c1Br | 6.11
71 | CC1(C)N=C(N)N=C(Nc2ccc(Cl)cc2)N1 | 0.76
72 | CCOC(=O)c1cc(C(=O)NCCCCN2CCC(c3ccc4c(c3OC)CCCC4)CC2)ccc1-c1ccc(C(F)(F)F)cc1 | 11.7
73 | c1cncc(-c2cc(N3CCCCC3)nc(-c3ccncc3)n2)c1 | 1.52
74 | Cc1ccccc1N1CCN(c2ccc(C(=O)NC(C)C)cn2)CC1 | 2.04
75 | CC(=O)Nc1ccc(S(=O)(=O)NC2=NC(=N)N(OCc3ccc(Cl)c(Cl)c3)C(C)(C)N2)cc1 | 1.49
76 | COc1cc2c(cc1OC)CN(CCc1ccc(NC(=O)c3cc4cc(Cl)ccc4[nH]3)cc1)CC2 | 5.26
77 | Cc1cc(N/N=C/c2ccccc2[N+](=O)[O-])c2ccccc2n1 | 2.8
78 | COc1ccc(O)c(C(=O)c2cc(C#N)c(=O)n(-c3ccc(Oc4ccccc4)cc3)c2)c1 | 3.52
79 | O=C(Nc1ccc([N+](=O)[O-])cc1O)Nc1ccccc1Oc1ccccc1 | 17
80 | O=C(NC1CCCCN(Cc2ccccc2O)C1)c1ccc(Cl)c(Cl)c1 (configuration not stated) | 3.4
81 | O=C(Nc1ccc(OC2CCN(Cc3ccc(F)cc3)CC2)c(Cl)c1)c1ccoc1 | 1.61
82 | CCc1nc2nc(C)cc(Nc3ccc(F)c(Cl)c3)n2n1 | -0
83 | COc1ccc2ncc(F)c([C@H](O)CN3CCC(NCc4ccc5c(c4)NC(=O)CS5)CC3)c2c1 | 2.24
84 | O=C(/C=C/c1ccc(Cl)c(Cl)c1)NCCCCN1CCC(c2c[nH]c3ccccc23)CC1 | 8.16
85 | CCCCNC(=N)Nc1ccc(OCCCOc2ccc(NC(=N)NCCCC)cc2)cc1 | 2.99
86 | CCNc1cc(C(=O)N[C@@H](Cc2ccccc2)[C@H](O)CNC(C)(C)Cc2cccc(Cl)c2)cc(N2CCCCS2(=O)=O)c1 | 3.6
87 | O=C1CCCN1CCCNCc1ccc(-c2ccc(-c3nc4cc(C(F)(F)F)ccc4[nH]3)s2)cc1 | 6.67
88 | CC(C)CC(=O)NC1CCN(Cc2c(-c3cccs3)nc3ccccc3c2C(=O)N[C@@H](C)C2CCCCC2)CC1 | 2.86
89 | Nc1nc(O)c2cc(CN(C=O)c3ccc(C(=O)N[C@@H](CCC(=O)O)C(=O)O)cc3)ccc2n1 | 0
90 | O=C(c1cc(OC(F)(F)F)ccc1O)N1CCN(c2ccccc2)CC1 | -0
91 | Cc1ccc(NC(=O)c2cn(-c3ccccc3)nc2-c2ccc(F)cc2)cc1[N+](=O)[O-] | 0.65
92 | N#Cc1cccc(NC(=O)NC2CCN(CCCCCNC(=O)C3CC3c3ccc(Cl)c(Cl)c3)CC2)c1 (configuration not stated) | 7.55

Reference: ChEMBL document CHEMBL1157539, “Thousands of chemical starting points for antimalarial lead identification” (Nature, 2010)
